Publication PMC3632089
No constants are given. Whether binding was seen depends on the method and setting. Binding seen in cells or lysates may run through a third protein. Some binding calls cover weakened binding; strength is not graded here. Where a sequence is shown, tags or fusion partners need not be part of it.

Chains of the proteins cited; added tags and fusions are not shown. Lines headed by an entry give the natural chain unless they say otherwise; changes in a name come on top. A line that says so, or that is headed by a name, gives the form on record, which may keep a tag or linker. Residues count along the entry.
UniProt Q96J92: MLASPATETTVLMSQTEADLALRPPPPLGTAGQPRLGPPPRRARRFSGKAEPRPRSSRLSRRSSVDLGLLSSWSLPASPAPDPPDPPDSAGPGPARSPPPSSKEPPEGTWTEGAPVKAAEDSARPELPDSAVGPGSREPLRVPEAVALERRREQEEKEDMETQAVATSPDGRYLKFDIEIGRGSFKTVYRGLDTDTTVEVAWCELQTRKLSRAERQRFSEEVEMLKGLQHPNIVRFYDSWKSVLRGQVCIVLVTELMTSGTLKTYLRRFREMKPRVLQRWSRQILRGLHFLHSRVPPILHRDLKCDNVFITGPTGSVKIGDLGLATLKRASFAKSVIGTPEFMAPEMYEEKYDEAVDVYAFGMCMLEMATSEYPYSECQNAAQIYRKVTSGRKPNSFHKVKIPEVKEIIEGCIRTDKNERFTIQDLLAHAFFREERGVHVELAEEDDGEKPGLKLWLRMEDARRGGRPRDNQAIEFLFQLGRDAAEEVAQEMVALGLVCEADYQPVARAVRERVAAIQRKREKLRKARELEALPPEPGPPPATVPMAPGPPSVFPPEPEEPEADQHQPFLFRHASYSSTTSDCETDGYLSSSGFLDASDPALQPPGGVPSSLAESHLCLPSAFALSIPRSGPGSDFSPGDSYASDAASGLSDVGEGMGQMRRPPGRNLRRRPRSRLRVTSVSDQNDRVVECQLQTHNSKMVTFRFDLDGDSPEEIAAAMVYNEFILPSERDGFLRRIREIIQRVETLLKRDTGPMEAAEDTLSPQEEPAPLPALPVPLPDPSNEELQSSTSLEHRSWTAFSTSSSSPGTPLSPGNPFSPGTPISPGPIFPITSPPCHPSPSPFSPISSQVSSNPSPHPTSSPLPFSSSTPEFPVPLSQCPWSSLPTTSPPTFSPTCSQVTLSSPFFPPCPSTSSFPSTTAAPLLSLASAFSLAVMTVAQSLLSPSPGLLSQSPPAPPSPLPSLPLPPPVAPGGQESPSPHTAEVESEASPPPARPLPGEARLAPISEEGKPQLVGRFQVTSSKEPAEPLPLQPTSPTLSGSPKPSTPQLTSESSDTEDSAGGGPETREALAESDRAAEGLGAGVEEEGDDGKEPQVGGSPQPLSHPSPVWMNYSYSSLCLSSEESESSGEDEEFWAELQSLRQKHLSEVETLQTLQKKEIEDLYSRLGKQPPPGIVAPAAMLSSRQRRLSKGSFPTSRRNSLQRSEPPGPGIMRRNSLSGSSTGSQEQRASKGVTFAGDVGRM
GST-tagged WNK1[479–667] fragment (Q9H4A3, residues 479-667): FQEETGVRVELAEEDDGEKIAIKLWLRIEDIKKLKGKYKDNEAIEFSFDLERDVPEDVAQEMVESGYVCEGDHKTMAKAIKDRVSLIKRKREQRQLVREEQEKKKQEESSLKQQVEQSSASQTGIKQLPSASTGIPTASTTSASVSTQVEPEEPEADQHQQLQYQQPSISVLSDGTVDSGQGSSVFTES
GST-tagged WNK1[479–667] Q636E (Q9H4A3, form named): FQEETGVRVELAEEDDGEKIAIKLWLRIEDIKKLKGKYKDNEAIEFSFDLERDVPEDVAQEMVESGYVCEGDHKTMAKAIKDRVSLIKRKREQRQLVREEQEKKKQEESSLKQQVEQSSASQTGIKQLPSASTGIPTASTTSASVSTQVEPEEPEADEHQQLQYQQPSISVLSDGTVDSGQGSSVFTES
GST-tagged WNK1[479–667] D635A (Q9H4A3, form named): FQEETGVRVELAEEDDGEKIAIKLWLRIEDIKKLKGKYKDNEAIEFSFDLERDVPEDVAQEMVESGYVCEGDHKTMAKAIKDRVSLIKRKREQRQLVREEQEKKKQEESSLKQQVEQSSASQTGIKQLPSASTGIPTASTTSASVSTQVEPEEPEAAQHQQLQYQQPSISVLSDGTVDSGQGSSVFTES
GST-tagged WNK1[479–667] E633K (Q9H4A3, form named): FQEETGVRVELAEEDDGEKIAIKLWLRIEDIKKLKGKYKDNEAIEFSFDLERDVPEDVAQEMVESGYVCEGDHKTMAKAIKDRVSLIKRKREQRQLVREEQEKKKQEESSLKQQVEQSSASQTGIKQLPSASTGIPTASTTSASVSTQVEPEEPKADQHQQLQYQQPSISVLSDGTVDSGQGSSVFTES

T1: GFP-tagged wild-type KLHL3 (human) (UniProt Q9UH77)
T1 sequence: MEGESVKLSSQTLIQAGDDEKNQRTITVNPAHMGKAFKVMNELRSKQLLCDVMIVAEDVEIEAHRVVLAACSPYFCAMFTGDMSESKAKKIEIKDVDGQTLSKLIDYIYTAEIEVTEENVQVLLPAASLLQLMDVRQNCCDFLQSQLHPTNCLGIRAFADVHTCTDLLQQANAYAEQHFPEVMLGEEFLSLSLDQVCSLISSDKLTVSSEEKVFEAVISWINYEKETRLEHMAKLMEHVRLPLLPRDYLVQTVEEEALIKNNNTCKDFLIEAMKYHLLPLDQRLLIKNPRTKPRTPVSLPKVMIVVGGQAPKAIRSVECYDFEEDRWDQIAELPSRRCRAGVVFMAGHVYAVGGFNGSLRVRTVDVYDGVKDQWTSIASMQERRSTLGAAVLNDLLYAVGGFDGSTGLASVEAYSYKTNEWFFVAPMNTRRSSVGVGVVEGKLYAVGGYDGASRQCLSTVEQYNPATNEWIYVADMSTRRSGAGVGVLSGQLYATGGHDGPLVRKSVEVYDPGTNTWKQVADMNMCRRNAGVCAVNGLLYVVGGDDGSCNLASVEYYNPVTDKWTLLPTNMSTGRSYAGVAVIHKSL

B1: GFP-tagged wild-type KLHL3 (protein, UniProt Q9UH77-1 1-587)
chain: T1 sequence
B2: FLAG–NCC (Na+/Cl- co-transporter) (protein, UniProt P55017 1-1021)
chain: MAELPTTETPGDATLCSGRFTISTLLSSDEPSPPAAYDSSHPSHLTHSSTFCMRTFGYNTIDVVPTYEHYANSTQPGEPRKVRPTLADLHSFLKQEGRHLHALAFDSRPSHEMTDGLVEGEAGTSSEKNPEEPVRFGWVKGVMIRCMLNIWGVILYLRLPWITAQAGIVLTWIIILLSVTVTSITGLSISAISTNGKVKSGGTYFLISRSLGPELGGSIGLIFAFANAVGVAMHTVGFAETVRDLLQEYGAPIVDPINDIRIIAVVSVTVLLAISLAGMEWESKAQVLFFLVIMVSFANYLVGTLIPPSEDKASKGFFSYRADIFVQNLVPDWRGPDGTFFGMFSIFFPSATGILAGANISGDLKDPAIAIPKGTLMAIFWTTISYLAISATIGSCVVRDASGVLNDTVTPGWGACEGLACSYGWNFTECTQQHSCHYGLINYYQTMSMVSGFAPLITAGIFGATLSSALACLVSAAKVFQCLCEDQLYPLIGFFGKGYGKNKEPVRGYLLAYAIAVAFIIIAELNTIAPIISNFFLCSYALINFSCFHASITNSPGWRPSFQYYNKWAALFGAIISVVIMFLLTWWAALIAIGVVLFLLLYVIYKKPEVNWGSSVQAGSYNLALSYSVGLNEVEDHIKNYRPQCLVLTGPPNFRPALVDFVGTFTRNLSLMICGHVLIGPHKQRMPELQLIANGHTKWLNKRKIKAFYSDVIAEDLRRGVQILMQAAGLGRMKPNILVVGFKKNWQSAHPATVEDYIGILHDAFDFNYGVCVMRMREGLNVSKMMQAHINPVFDPAEDGKEASARVDPKALVKEEQATTIFQSEQGKKTIDIYWLFDDGGLTLLIPYLLGRKRRWSKCKIRVFVGGQINRMDQERKAIISLLSKFRLGFHEVHILPDINQNPRAEHTKRFEDMIAPFRLNDGFKDEATVNEMRRDCPWKISDEEITKNRVKSLRQVRLNEIVLDYSRDAALIVITLPIGRKGKCPSSLYMAWLETLSQDLRPPVILIRGNQENVLTFYCQ

Assays:
[1] = target: FLAG-tagged wild-type WNK4 (UniProt Q96J92); assay: co-IP; GFP-KLHL3 transfected into HEK-293 cells stably expressing FLAG-WNK4 (wild type or mutant); anti-FLAG IP and anti-GFP IP, immunoblot
[2] = target: GST-tagged WNK1[479–667] Q636E (UniProt Q9H4A3); assay: pull-down + co-IP; GST-WNK1 fragments transfected into HEK-293 cells stably expressing GFP-KLHL3; glutathione-Sepharose purification blotted with anti-GFP, and anti-GFP IP blotted with anti-GST
[3] = target: GST-tagged WNK1[479–667] D635A (UniProt Q9H4A3); assay: as above
[4] = target: GST-tagged WNK1[479–667] fragment (UniProt Q9H4A3); assay: as above
[5] = target: GST-tagged WNK1[479–667] E633K (UniProt Q9H4A3); assay: as above
[6] = target: T1, GFP-tagged wild-type KLHL3 (human); assay: co-IP; GFP-KLHL3 transfected into HEK-293 cells stably expressing FLAG-NCC; anti-GFP agarose IP from 0.2 mg extract; immunoblot

Row | binding [1] | binding [2] | binding [3] | binding [4] | binding [5] | binding [6] | Binder
1 | binds | no binding | no binding | binds | no binding | – | B1
2 | – | – | – | – | – | no binding | B2
